# Reference: ChEMBL document CHEMBL4706658, “Discovery and Biological Evaluation of N-Methyl-pyrrolo[2,3-b]pyridine-5-carboxamide Derivatives as JAK1-Selective Inhibitors” (J Med Chem, 2021)
# Target: T1, Tyrosine-protein kinase JAK3 (Homo sapiens, UniProt P52333)
# T1 sequence (P52333 whole entry): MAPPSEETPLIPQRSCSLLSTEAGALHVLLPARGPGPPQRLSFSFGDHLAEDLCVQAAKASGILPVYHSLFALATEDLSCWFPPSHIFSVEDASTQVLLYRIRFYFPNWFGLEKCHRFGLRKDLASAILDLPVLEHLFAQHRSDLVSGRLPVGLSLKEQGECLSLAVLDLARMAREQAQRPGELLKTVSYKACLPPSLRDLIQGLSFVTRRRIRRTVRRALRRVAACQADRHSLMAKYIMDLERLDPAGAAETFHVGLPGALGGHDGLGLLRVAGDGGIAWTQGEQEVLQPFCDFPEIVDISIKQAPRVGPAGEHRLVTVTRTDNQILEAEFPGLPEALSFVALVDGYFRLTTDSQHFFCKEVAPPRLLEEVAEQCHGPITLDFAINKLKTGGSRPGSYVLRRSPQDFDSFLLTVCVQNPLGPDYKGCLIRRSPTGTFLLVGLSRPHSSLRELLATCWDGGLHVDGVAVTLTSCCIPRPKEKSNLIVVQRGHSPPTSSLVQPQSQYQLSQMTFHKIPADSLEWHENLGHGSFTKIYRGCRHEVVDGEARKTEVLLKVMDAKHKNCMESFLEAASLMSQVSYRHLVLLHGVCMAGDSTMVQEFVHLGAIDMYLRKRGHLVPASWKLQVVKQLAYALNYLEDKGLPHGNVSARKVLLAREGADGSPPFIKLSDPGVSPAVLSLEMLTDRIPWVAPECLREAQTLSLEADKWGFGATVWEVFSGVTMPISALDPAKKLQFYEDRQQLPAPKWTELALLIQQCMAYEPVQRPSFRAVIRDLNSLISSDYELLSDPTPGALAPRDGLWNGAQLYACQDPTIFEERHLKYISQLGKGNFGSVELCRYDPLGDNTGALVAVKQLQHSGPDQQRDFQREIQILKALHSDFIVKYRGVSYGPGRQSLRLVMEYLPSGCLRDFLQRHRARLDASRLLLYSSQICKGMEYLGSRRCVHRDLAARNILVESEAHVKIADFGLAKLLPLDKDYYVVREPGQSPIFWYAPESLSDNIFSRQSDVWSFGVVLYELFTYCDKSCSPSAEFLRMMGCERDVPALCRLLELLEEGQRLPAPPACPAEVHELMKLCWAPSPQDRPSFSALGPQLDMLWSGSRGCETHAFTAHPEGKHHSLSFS
row,Structure (SMILES),IC50 [nM]
1,CNC(=O)c1cnc2[nH]ccc2c1N[C@@H]1CCN(Cc2ccc(C#N)cc2)[C@H](C)C1 (relative stereo),2.41
2,CNC(=O)c1cnc2[nH]ccc2c1NC1CCN(Cc2ccc(OC)cc2)CC1,421
3,O=C(NC1CC1)c1cnc2[nH]ccc2c1NC1CCN(Cc2ccccc2)CC1,517
4,COc1cccc(CN2CC[C@@H](Nc3c(C(N)=O)cnc4[nH]ccc34)C[C@H]2C)c1 (relative stereo),8.84
5,CNC(=O)c1cnc2[nH]ccc2c1NC1CCN(Cc2ccccc2OC)CC1,305
6,CNC(=O)c1cnc2[nH]ccc2c1NC1CCCN(Cc2ccccc2)CC1 (centres undefined),341
7,COc1cccc(CN2CCC(Nc3c(C(=O)NC4CCCC4)cnc4[nH]ccc34)CC2)c1,> 10000
8,CNC(=O)c1cnc2[nH]ccc2c1NC1CCCN(Cc2cccc(OC)c2)CC1 (centres undefined),72.8
9,CNC(=O)c1cnc2[nH]ccc2c1NC1CCN(Cc2ccccc2)CC1,690
10,CNC(=O)c1cnc2[nH]ccc2c1NC1CCN(Cc2cccc(OC)c2)CC1,862
11,CNC(=O)c1cnc2[nH]ccc2c1NC1CCN(Cc2ccc(OC)c(OC)c2)CC1,2580
12,CNC(=O)c1cnc2[nH]ccc2c1NC1CCN(Cc2cccc(C#N)c2)CC1,248
13,C[C@@H]1C[C@H](Nc2c(C(N)=O)cnc3[nH]ccc23)CCN1Cc1cccc(Cl)c1 (relative stereo),9.94
14,COc1cccc(CN2CCC(Nc3c(C(=O)NC4CC4)cnc4[nH]ccc34)CC2)c1,8490
